Measured values as given in the supplement of paper PMC4967469.
By IC50 is meant the dose at which the fit gives 50% viability; where the fit passes the top or lowest dose, that dose stands as a limit. AUC, from the same fit, is the share of area under the viability curve across the 256-fold dose range; values near 1 show little effect. For part of these data: Where the top dose is marked as inferred, it comes from the curve model; the source does not state it. For part of these data: An entry number marks a drug with two screens in the source, which often give different values.

Columns and labels:
Experiment in all cases: Viability of human cancer cell lines after 72 h of drug (GDSC screen)
[1] = compound: C[C@]12O[C@H](C[C@]1(O)CO)n1c3ccccc3c3c4c(c5c6ccccc6n2c5c31)CNC4=O [CEP-701]; settings: top dose 2 µM; top dose inferred
Description: (§1)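 Human cancer cell lines in 384-well plates, medium with 10% serum, drug for 72 h over a 256-fold dose range (nine 2-fold or five 4-fold steps up to the top dose). Adherent lines were fixed and stained with the nucleic acid dye Syto60, suspension lines read with resazurin; signal relative to control wells, capped at 0 and 100%. One two-parameter sigmoid per drug and line, fitted in a mixed model over all curves with the slope shared within a line.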

[2] = compound: Cc1ccc(Nc2nccc(N(C)c3ccc4c(C)n(C)nc4c3)n2)cc1S(N)(=O)=O [Pazopanib]; settings: top dose 8 µM
Description: as §1

[3] = compound: CC(C)C[C@@H](C=O)NC(=O)[C@H](CC(C)C)NC(=O)[C@H](CC(C)C)NC(=O)OCc1ccccc1 [MG-132]; settings: top dose 1 µM
Description: as §1

[4] = compound: Cn1cc(C2=C(c3ccc(Cl)cc3Cl)C(=O)NC2=O)c2ccccc21 [SB 216763]; settings: top dose 10 µM; top dose inferred
Description: as §1

[5] = compound: CC(C)[C@H](C(=O)Nc1ccc(C(=O)NO)cc1)c1ccccc1 [AR-42]; settings: top dose 5.12 µM; top dose inferred
Description: as §1

[6] = compound: CS(=O)(=O)N1CCN(Cc2cc3nc(-c4cccc5[nH]ncc45)nc(N4CCOCC4)c3s2)CC1 [GDC0941]; settings: top dose 4 µM; screen: GDSC drug entry 1527; top dose inferred
Description: as §1

[7] = compound: CCN(CC)CCNC(=O)c1c(C)[nH]c(/C=C2\C(=O)Nc3ccc(F)cc32)c1C [Sunitinib]; settings: top dose 8 µM
Description: as §1

Cell Line | AUC [1] | IC50 [1] | AUC [2] | IC50 [2] | AUC [3] | IC50 [3] | AUC [4] | IC50 [4] | AUC [5] | IC50 [5] | AUC [6] | IC50 [6] | AUC [7] | IC50 [7]
NCI-H211 (small cell lung carcinoma, adherent) | 0.743 | 607 nM | 0.972 | > 8000 nM | 0.986 | > 1000 nM | 0.964 | > 10000 nM | 0.265 | 70 nM | 0.899 | > 4000 nM | 0.878 | 7720 nM
SK-ES-1 (Ewing sarcoma, semi-adherent) | 0.492 | 119 nM | 0.65 | 1340 nM | 0.926 | > 1000 nM | 0.985 | > 10000 nM | 0.638 | 793 nM | 0.725 | 1140 nM | 0.725 | 2290 nM
OCI-LY-19 (B-cell lymphoma, suspension) | 0.318 | 40.6 nM | 0.868 | 6370 nM | 0.857 | 713 nM | 0.986 | > 10000 nM | 0.303 | 94.4 nM | 0.73 | 1060 nM | 0.656 | 1300 nM
A4-Fuk (B-cell lymphoma, suspension) | 0.364 | 51.8 nM | 0.983 | > 8000 nM | 0.693 | 224 nM | 0.985 | > 10000 nM | 0.91 | > 5120 nM | 0.775 | 1650 nM | 0.649 | 1320 nM
GOTO (neuroblastoma, adherent) | 0.771 | 872 nM | 0.976 | > 8000 nM | 0.974 | > 1000 nM | 0.983 | > 10000 nM | 0.624 | 736 nM | 0.895 | > 4000 nM | 0.913 | > 8000 nM
Daudi (Burkitt lymphoma, suspension) | 0.696 | 409 nM | 0.822 | 3910 nM | 0.81 | 445 nM | 0.967 | > 10000 nM | 0.397 | 173 nM | 0.72 | 952 nM | 0.84 | 4530 nM
ALL-PO (lymphoblastic leukaemia, suspension) | 0.239 | 20.8 nM | 0.908 | > 8000 nM | 0.744 | 328 nM | 0.846 | 7900 nM | 0.165 | 28 nM | 0.945 | > 4000 nM | 0.244 | 86.6 nM
MC-CAR (haematopoietic neoplasm, suspension) | 0.499 | 124 nM | 0.96 | > 8000 nM | 0.937 | > 1000 nM | 0.989 | > 10000 nM | 0.334 | 117 nM | 0.859 | 2760 nM | 0.904 | > 8000 nM
D-283MED (medulloblastoma, adherent) | 0.504 | 128 nM | 0.983 | > 8000 nM | 0.981 | > 1000 nM | 0.99 | > 10000 nM | 0.991 | > 5120 nM | 0.972 | > 4000 nM | 0.9 | > 8000 nM
LS-123 (large intestine, adherent) | 0.777 | 1080 nM | 0.973 | > 8000 nM | 0.854 | > 1000 nM | 0.946 | > 10000 nM | 0.611 | 716 nM | 0.793 | 2540 nM | 0.86 | > 8000 nM
OCUB-M (breast, adherent) | 0.88 | 1600 nM | 0.806 | 3420 nM | 0.572 | 95.3 nM | 0.988 | > 10000 nM | 0.458 | 250 nM | 0.682 | 745 nM | 0.89 | 7060 nM
SH-4 (melanoma, adherent) | 0.494 | 119 nM | 0.762 | 4500 nM | 0.475 | 51.5 nM | 0.964 | > 10000 nM | 0.757 | 2740 nM | 0.742 | 1860 nM | 0.762 | 4530 nM
A3-KAW (B-cell lymphoma, suspension) | 0.629 | 261 nM | 0.956 | > 8000 nM | 0.853 | 547 nM | 0.992 | > 10000 nM | 0.325 | 117 nM | 0.9 | 3280 nM | 0.708 | 1670 nM
LB1047-RCC (kidney, adherent) | 0.457 | 93.8 nM | 0.739 | 2650 nM | 0.882 | > 1000 nM | 0.976 | > 10000 nM | 0.49 | 300 nM | 0.638 | 634 nM | 0.625 | 1160 nM
CA46 (Burkitt lymphoma, suspension) | 0.887 | > 2000 nM | 0.896 | > 8000 nM | 0.959 | > 1000 nM | 0.983 | > 10000 nM | 0.163 | 27.1 nM | 0.59 | 450 nM | 0.88 | > 8000 nM
